# Test results: PubChem BioAssay AID1508624 (National Center for Advancing Translational Sciences (NCATS), 2021)
# Screen size: about 48,000 compounds; about 120 (0.25%) were called active. Another 4% or so got no clear call; they are omitted. Calls follow the shape of the dose curve; as a rule, active = well fitted activation curve with a large enough effect; inconclusive = small, poorly fitted or top-dose-only effect, or another doubt; inactive = no such curve, though single readings can be large or run the other way. This is one part of the list.
# Assay: Primary qHTS for Identification of Small Molecule Activators of Huntingtin-Antisense Promoter Activity; also: nearly all actives have a fitted effect of over 55% in size
# Settings: HEK293 HTT-AS promoter firefly luciferase reporter (activity 0% = vehicle and -100% = no light), 24 h; series mostly up to 57.5 µM; activity change, positive = activation: at the top concentration
# Outline: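 HEK293 Fluc reporter, 2,500 cells/well, 24 h pre-culture; cpds up to 57.5 uM final, 24 h 37 degrees C; Dual-Glo, 10 min RT; normalized vehicle = 0%, zero RLU = -100%.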
row,SMILES,"activity change, positive = activation"
1,Cc1cccc(NC(=O)CSc2nc3c(oc4ccccc43)c(=O)n2-c2ccccc2)c1C,inactive: -17.4%
2,Cc1ccc(S(=O)(=O)N2CCC(C(=O)Nc3cc(C)ccc3C)CC2)cc1,inactive: -9.88%
3,O=C(CC(c1cccs1)N1Cc2ccccc2C1=O)Nc1ccccc1F (stereo not given),inactive: -30.3%
4,Cc1ccc(NC(=O)CN2C(=O)CSc3ccc(S(=O)(=O)N(C)C)cc32)cc1C,inactive: -4.06%
5,COC(=O)c1cc2occc2n1Cc1ccc(F)cc1Cl,inactive: -5.2%
6,Cc1ccc(CSC2=Nc3ccccc3C3=NC(CCC(=O)NCCc4ccccc4)C(=O)N23)cc1 (stereo not given),inactive: -6.3%
7,Cc1ccc(-c2nn(CCC(=O)Nc3ccc(Cl)c(Cl)c3)c(=O)c3ccccc23)cc1,inactive: -29.1%
8,COc1ccc(-c2nc(S(=O)(=O)c3ccc(Cl)cc3)c(N3CCCCCC3)o2)cc1,inactive: -9.07%
9,Cc1ccc(C(=O)NCCSc2c(C)[nH]c3ccccc23)cc1C,inactive: -33.1%
10,CCOc1cc(C2C(C(N)=O)=C(C)Nc3ncnn32)cc(Br)c1O (stereo not given),inactive: -10.5%
11,Nc1nc2nc(-c3ccc(Cl)cc3)cc(C(F)(F)F)n2n1,inactive: -5.7%
12,Cc1ccc(NC(=O)CSc2nc3c(c(=O)[nH]2)CN(Cc2ccccc2)CC3)cc1Cl,inactive: 0%
13,CC(=O)N1c2ccccc2C(=O)C1N1CCN(c2cccc(C)c2C)CC1 (stereo not given),inactive: -11.2%
14,Nc1nonc1-c1nc2ccccc2n1Cc1ccc(Br)cc1,inactive: -15.5%
15,CC(C)(Oc1ccc(Cl)cc1)C(=O)Nc1cccc(-c2cn3cccnc3n2)c1,inactive: -1.87%
16,CC(CNC(=O)c1sc2ncccc2c1-n1cccc1)c1ccccc1 (stereo not given),inactive: -18%
17,Cc1ccc(NC(=O)C2=CC(c3cccs3)=NS(=O)(=O)N2C)cc1,inactive: -16.8%
18,COc1ccccc1-c1nnc(SCC(=O)c2ccc(F)cc2)n1-c1ccccc1,inactive: -12.5%
19,CCc1ccc(CNC(=O)CN2C(=O)CCn3nc(-c4cn(C)c5ccccc45)cc32)cc1,inactive: -15.2%
20,O=C(Nc1cccc(Cl)c1)C1CCCN1S(=O)(=O)c1cccc2cccnc12 (stereo not given),inactive: -25.8%
21,Cn1nnnc1SCCNCc1ccc(OCc2ccc(Cl)cc2)cc1,inactive: -2.41%
22,CC(C)(C)c1nc(-c2cccc(NS(=O)(=O)c3c(F)cccc3F)c2F)c(-c2ccnc(N)n2)s1,inactive: -29.6%
23,Cc1cc(Cl)ccc1OCc1cc(=O)n2c3c(sc2n1)CCCC3,inactive: -3.53%
24,Cc1ccc(CN2C(=O)c3ccccc3Sc3ccc(C(=O)NCCCN4CCOCC4)cc32)cc1,inactive: -34.6%
25,Cc1oc(-c2cccc(Cl)c2)nc1CN1CCC(C(=O)NCCc2ccc(Cl)cc2)CC1,inactive: -14.9%

row,SMILES,"activity change, positive = activation"
1,COc1cccc(OCC(=O)Nc2nnc3n2CCS3)c1,inactive: -3.45%
2,CCc1ccc(C2=C(C)C(N3CCC(C(=O)NCCc4ccco4)CC3)=NS2(=O)=O)cc1,inactive: -17.1%
3,COc1ccc(C(=O)Nc2ccc(N3CCOCC3)c(C(F)(F)F)c2)cc1OC,inactive: -37%
4,Cc1cccc(NC(=O)CSc2nc(=O)n(Cc3cccnc3)c3c2CCC3)c1C,inactive: -12.2%
5,COc1cccc2c1CCCC2CCCN1CCN(C2CCCCC2)CC1 (stereo not given),inactive: -22.6%
6,Cc1cc(OCC(=O)NCC2(N3CCOCC3)CCCCC2)ccc1Cl,inactive: -25.3%
7,CCc1cccc(NC(=O)C(CC(C)C)NS(=O)(=O)c2ccc3c(c2)oc(=O)n3C)c1 (stereo not given),inactive: -35.2%
8,CCC(=O)N1CCc2cc(CNC(=O)Nc3cc(Cl)ccc3C(=O)OC)ccc21,inactive: -9.58%
9,COc1ccccc1CN1CCC(CNC(=O)c2cnn(-c3ccc(C)c(C)c3)c2C2CCN(C(=O)OC(C)(C)C)CC2)CC1,inactive: -23.5%
10,CCCN(CCC)CCNC(=O)c1cc(-c2ccc(Br)s2)nc2ccccc12,inactive: -22.5%
11,Brc1ccc2nc(-c3ccccc3)c(Nc3ccc4c(c3)OCO4)n2c1,inactive: -2.48%
12,COc1ccccc1NC(=O)c1cc(C2CC2)nc2c1c(C)nn2-c1ccc(C)cc1,inactive: -12.2%
13,CC(C)CCN(Cc1ccco1)C(=O)Cn1ncc2c([nH]c3ccccc32)c1=O,inactive: -38.9%
14,O=c1c(N2CCc3ccccc3C2)csc2ccc(Br)cc12,inactive: 22.3%
15,COc1ccccc1Cc1nc2ccccc2nc1SCC(=O)N1CCC(C)CC1,inactive: -42.4%
16,CCOC(=O)c1cc(-c2ccccc2)n(CCCC(=O)Nc2cc(C)ccc2OC)c1C,inactive: -24.9%
17,Cc1cccc(C(=O)Nc2ccc(N3CCN(c4ccc(F)cc4)CC3)c(C(=O)O)c2)c1,inactive: -4.69%
18,Cc1ccc2nc(SCC(=O)Nc3ccc(C#N)cc3)[nH]c2c1,inactive: -11.2%
19,Cc1c(C(=O)N2CCC(C)CC2)c(S(=O)(=O)N2CCN(c3cccc(Cl)c3)CC2)c(C)n1C,inactive: -16.7%
20,COc1ccc(OC)c(NC(=O)CCc2nc(-c3ccc(C)cc3)no2)c1,inactive: -14%
21,COc1ccc(S(=O)(=O)c2cn(Cc3ccccc3)c3cc(F)c(F)cc3c2=O)cc1,inactive: 0%
22,CN1C(=O)c2[nH]nc(-c3ccc(F)cc3)c2C1c1ccccn1 (stereo not given),inactive: -9.2%
23,CCOc1ccc(C(=O)NCc2ccc3c(c2)CCN3C(=O)c2ccc(C)cc2)cc1OCC,inactive: -31%
24,COc1ccc(Nc2cc(C(=O)NCc3ccccc3)c3ccccc3n2)cc1OC,inactive: 7.23%
25,O=c1c(S(=O)(=O)c2ccc(Cl)cc2)cn(Cc2ccc(F)cc2)c2ccc(F)cc12,inactive: -2.63%
